In all, about 48,000 compounds went through this assay and about 1,200 (2.5%) were called active. Roughly 2% stayed inconclusive and do not appear here.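 The calls were made as follows: active = activation of at least 60% and not above a set upper limit (about 1 call in 100 departs from these limits); inconclusive = activation of 40% to 60%, or above that upper limit; inactive = activation under 40%.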 The list shows a part of the results.

Data on 84 compounds can be found in PubChem BioAssay AID1346428 (National Center for Advancing Translational Sciences (NCATS), 2018).

UniProt O75388, sequence (O75388 whole entry, looked up): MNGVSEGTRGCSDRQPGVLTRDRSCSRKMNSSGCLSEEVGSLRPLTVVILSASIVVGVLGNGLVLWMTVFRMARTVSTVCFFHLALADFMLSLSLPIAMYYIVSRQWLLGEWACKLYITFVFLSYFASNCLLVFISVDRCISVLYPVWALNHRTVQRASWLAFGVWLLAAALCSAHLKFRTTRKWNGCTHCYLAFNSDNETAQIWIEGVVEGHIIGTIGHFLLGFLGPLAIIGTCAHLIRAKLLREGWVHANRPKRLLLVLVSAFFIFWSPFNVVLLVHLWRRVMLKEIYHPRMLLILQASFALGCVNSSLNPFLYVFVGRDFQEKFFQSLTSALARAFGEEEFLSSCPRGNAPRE

The test has as its target Probable G-protein coupled receptor 32 (Homo sapiens) (UniProt O75388). Kind of test: qHTS for Agonists of Human Resolvin D1 Receptor DRV1. The following applies: CHO-K1 GPR32 beta-arrestin PathHunter luminescence, 90 min; at 76.9 µM; hits give high values; zero percent set by DMSO-only wells. Put shortly:
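Using DMSO wells as EC0, agonist-induced signal was taken as chemiluminescence from beta-Gal reconstituted upon beta-arrestin recruitment to GPR32 in CHO-K1 cells after 90 min compound treatment.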
For `COc1cc2ccccc2cc1C(=O)N1CCN(c2nc3c(F)cc(F)cc3s2)CC1`, the activation is inactive: 8.86%.

Consider `COc1ccc(-n2c(=O)c3c(c4cc(OC)ccc4n3C)n(CC(=O)N3CCCC3)c2=O)cc1`, for which the activation was inactive: -2.81%.

As to `COc1ccc(N2CCN(CCCNC(=O)c3ccc4nc(Cc5ccccc5)oc4c3)CC2)cc1`, the activation was inactive: 11.9%.

On to `Cc1ccc(NC(=O)C(C)Sc2nc3c(c(=O)[nH]2)CCCC3)cc1Cl` (centres undefined), for which the activation was inactive: 24.6%.

On to `CSc1cccc(NC(=O)CN2C(=O)CCc3cc(S(=O)(=O)N4CCCCC4)ccc32)c1`, for which the activation was inactive: -19.9%.

Consider `Cc1cc(C)cc(NC(=O)c2cccc(C(=O)Nc3cc(C)cc(C)c3)c2)c1`, for which the activation was inactive: -1.04%.

Consider `CCc1ccc(NC(=O)CCCc2nnc3n(CCCOC)c(=O)c4sccc4n23)cc1`, for which the activation was inactive: -13.1%.

As for `CCOc1ccccc1NC(=O)CSc1ccc2nc(-c3ccccc3)cn2n1`, the activation was inactive: -2.84%.

For `O=C(COc1ccccc1Cl)N(Cc1cccc(F)c1)C1CCS(=O)(=O)C1` (centres undefined), the activation was inactive: -18.3%.

Turning to `COC(=O)c1ccccc1NC(=O)Cn1c(=O)n(CCCC(=O)NCc2ccccc2Cl)c(=O)c2ccccc21`, the activation was inactive: -19.4%.

`O=C(Cn1cnc2c(nc3n2CCCCC3)c1=O)Nc1cccc(C(F)(F)F)c1`: the activation was inactive: -11.8%.

Regarding `CCOc1ccc(/C=C/c2nc(C#N)c(NCCCN(C)C)o2)cc1`, the activation was inactive: 3.57%.

Take `CN(C(=O)Nc1cn(C)c(=O)c2ccccc12)c1ccccc1`: the activation is inactive: -59.9%.

Turning to `COc1cc(CNC(=O)CCCCCCC(C)C)ccc1O`, the activation is inactive: -12.3%.

`COc1ccccc1CCNC(=O)Cc1c(C)c2c(cc(C)c3c(C)coc32)oc1=O`: the activation was inactive: -8.2%.

For `COc1ccc(N2C(=O)C(CC(=O)Nc3ccc(F)cc3)N(CCC3=CCCCC3)C2=O)cc1` (centres undefined), the activation was inactive: -6.78%.

As for `O=C(NC1CC(=O)N(c2cccc(F)c2)C1)C1CCCCC1` (centres undefined), the activation was inactive: 4.72%.

In the case of `O=C(CSC1=Nc2ccccc2N=C(c2ccc(F)cc2)C1)Nc1cc(F)ccc1F`, the activation was inactive: -6.31%.

As for `COc1ccc(Cl)cc1NC(=O)CN1c2ccccc2S(=O)(=O)c2ccccc21`, the activation is inactive: 2.36%.

Take `CCCCNc1cc(NC2CCCCC2)c2c3c(onc13)-c1ccccc1C2=O`: the activation was inactive: -19.8%.

Consider `CCCN1C(=O)CN(C2CCCCCC2)C(=O)C1c1ccc(OCC)c(OC)c1` (centres undefined), for which the activation was inactive: -18%.

For `COCCCNC(=O)c1c(NC(=O)c2cc(=O)c3cc(C)c(C)cc3o2)sc2c1CCCC2`, the activation is inactive: 7.03%.

For the compound `COc1ccccc1CCNC(=O)c1cc2ccccn2n1`, the activation was inactive: 19.4%.

On to `CCCOc1ccc(CNC(=O)C2CCN(c3nc4ccccc4nc3C(F)(F)F)CC2)cc1`, for which the activation was inactive: 6.73%.

On to `CCn1cc2nc(SCc3cccc(OC)c3)n(Cc3ccc(Cl)cc3)c(=O)c2n1`, for which the activation is inactive: -4.17%.

For `Cc1ccc(SCC(=O)Nc2cccc(-c3nc4cc(Cl)ccc4o3)c2C)cc1`, the activation is inactive: -5.02%.

As to `CC1=C(C(=O)Nc2ccccc2Cl)C(c2cccs2)n2ncnc2N1` (centres undefined), the activation is inactive: 30.6%.

For `O=C(CCC1N=C2c3ccccc3N=C(SCc3cccc(F)c3)N2C1=O)NC1CCCCC1` (centres undefined), the activation was inactive: -6.89%.

On to `O=[N+]([O-])c1ccc(O)c2ncccc12`, for which the activation was inactive: -82.2%.

Take `COC(=O)c1cc2sccc2n1Cc1ccccc1`: the activation is inactive: -13.2%.

For the compound `COc1cccc(NS(=O)(=O)c2ccc3[nH]cc(C(=O)NC4CCCCC4)c(=O)c3c2)c1`, the activation is active: 103%.

With `Cc1cc(NS(=O)(=O)c2ccc(NC(=O)COc3c(C)cc(Br)cc3C)cc2)no1`, the activation is inactive: -8.59%.

Take `O=S(=O)(NCc1ccccc1)c1ccc2[nH]c3c(c2c1)CCCCC3`: the activation is inactive: 10.6%.

For the compound `COc1cc(C(=O)Nc2ccc(-c3cc(C(F)(F)F)nn3-c3ccccc3)cc2)cc(OC)c1OC`, the activation is inactive: -0.0264%.

`COc1ccccc1CNc1nc(-c2ccco2)nn1S(=O)(=O)c1ccc(Cl)cc1`: the activation was inactive: -20.7%.

On to `Cc1ccc(S(=O)(=O)Nc2cc(Cl)c3oc4c(c3c2)C(=O)CC(C)(C)C4)cc1`, for which the activation was inactive: -2.05%.

In the case of `CCc1ccccc1NC(=O)c1cnn2c(C(F)(F)F)cc(-c3ccc(OC)c(OC)c3)nc12`, the activation is inactive: 1.24%.

With `COCCNC(=O)C(=O)Nc1c2c(nn1-c1ccccc1)CS(=O)(=O)C2`, the activation was inactive: -12.3%.

Consider `Cc1ccccc1NC(=O)CSc1nc2ccc(NC(=O)COc3ccccc3F)cc2s1`, for which the activation was inactive: 26.7%.

In the case of `COc1cc(OC)c(NC(=O)Cn2c(=O)cc(C(F)(F)F)c3c(C)nn(C)c32)cc1Cl`, the activation was inactive: 0.713%.

As for `CCOC(=O)c1c(C)sc(-c2c(-c3cc(C)ccc3C)[nH]c3c2c(=O)[nH]c(=O)n3C)c1O`, the activation is inactive: -21.1%.

`CCOc1ccc(CCNC(=O)Cn2nc(C)c3c(C)n(-c4ccccc4)nc3c2=O)cc1OCC`: the activation is inactive: -12.2%.

With `COc1ccccc1OCc1ccc(C(=O)Nc2ccc(C)c(C)c2)o1`, the activation was inactive: 7.54%.

For the compound `CCOC(=O)c1cnn(-c2cccc(F)c2)c1C1CCNCC1`, the activation is inactive: 3.24%.

For the compound `Cc1cccc(NC(=O)Cn2nc(N3CCN(c4ccccc4)CC3)ccc2=O)c1C`, the activation is inactive: 32%.

`CCCCN(CC)CCCNC(=O)c1cn(C)c2ccc(S(=O)(=O)N(C)C3CCCCC3)cc2c1=O`: the activation is inactive: -5.85%.

With `CCOc1cc(C(=O)NCc2ccc3c(c2)CCN3C(=O)CC)cc(OCC)c1OCC`, the activation was inactive: -1.66%.

With `O=C(Nc1ccccc1C(=O)O)c1cccc(S(=O)(=O)N2CCCC2)c1`, the activation was inactive: 8.08%.

Turning to `O=C(NCc1ccc(F)cc1)C1CCN(C(=O)c2cnn(-c3ccccc3)c2-n2cccc2)CC1`, the activation was inactive: 9.21%.

With `Cc1ccccc1NC(=O)CN(C)S(=O)(=O)c1cccc2nsnc12`, the activation was inactive: -13.5%.

`COc1cccc(CNC(=O)CCC(=O)N2CC3CCCN3c3ccccc32)c1` (centres undefined): the activation was inactive: -24.2%.

As to `CCC(Cn1nnc2ccccc2c1=O)NC(=O)Nc1cccc(Cl)c1` (centres undefined), the activation was inactive: -17.5%.

For `CCc1cccc(NC(=O)Cn2c(=O)n(CC3CCC(C(=O)NCCc4ccccc4)CC3)c(=O)c3ccccc32)c1` (centres undefined), the activation was inactive: 1.23%.

On to `Cc1ccc(C(=O)N2CCN(c3ccccc3F)CC2)cc1NC(=O)c1nsc2ccccc12`, for which the activation was inactive: -36.2%.

As to `COc1ccc(-c2[nH]ncc2C(=O)NCc2ccc(F)cc2)cc1`, the activation is inactive: -13.1%.

Turning to `Cc1c2cnn(CC(=O)Nc3ccc(F)cc3F)c(=O)c2c(C)n1Cc1cccc(Cl)c1`, the activation is inactive: -8.7%.

For the compound `CCOC(=O)c1cc2c(=O)n3ccccc3nc2n(Cc2ccco2)c1=NC(=O)c1ccccc1OC`, the activation is inactive: -22.6%.

Consider `Cc1ccc(NC(=O)C2CCCN(c3nnc(C)c4c(C)n(-c5ccccc5)nc34)C2)cc1Cl` (centres undefined), for which the activation is inactive: 14.8%.

`COc1ccc(-n2nc3c(c2NC(=O)C(=O)N2CCN(C)CC2)CSC3)cc1`: the activation is inactive: -6.78%.

Consider `Cc1cc(C)cc(OCC(=O)Nc2cccc(-c3nc4ccccc4[nH]3)c2)c1`, for which the activation was inactive: 9.76%.

In the case of `O=C(Cn1c(=O)n(-c2ccc(F)cc2)c(=O)c2sccc21)Nc1cccc(C(F)(F)F)c1`, the activation was inactive: -24.4%.

Regarding `COc1ccc(Cn2c(C(=O)O)c(CNCCc3ccccc3Cl)c3ccc(C)cc32)cc1`, the activation is inactive: 45.1%.

Regarding `Cc1ccc(-n2nc3c(=O)n(C(C)C(=O)O)nc(C)c3c2C)cc1` (centres undefined), the activation is inactive: -10.6%.

As to `COc1cccc(CNC(=O)Cn2c(=O)oc3cc(S(=O)(=O)N4CCC(C)CC4)ccc32)c1`, the activation is inactive: 12.4%.

In the case of `CCC(=O)N1CCc2cc(S(=O)(=O)CCC(=O)NCc3ccc(F)cc3)ccc21`, the activation is inactive: 33%.

As for `CC(C)NC(=O)c1cc2c(Cl)nc3ccccc3c2s1`, the activation was inactive: 14.2%.

Consider `Cc1cc(O)c(C(=O)c2cnc3c(c2)COc2ccccc2-3)cc1Cl`, for which the activation is inactive: -27.1%.

As for `Cc1ccc(CNC(=O)c2ccc3c(c2)N(Cc2cccc(Cl)c2)C(=O)CS3)cc1`, the activation is inactive: -8.18%.

For `CCOc1ccc(NC(=O)Cn2cc(C(=O)c3ccc(C)c(C)c3)c(=O)c3cc(F)ccc32)cc1`, the activation is inactive: -11.2%.

`Cc1ccc(Cl)cc1NC(=O)Cn1c(=O)n(CCC(=O)N2CCc3ccccc3C2)c(=O)c2ccccc21`: the activation is inactive: 2.58%.

`CCOc1ccc2nc(N3CCCC(C(=O)NCCc4ccc(SC)cc4)C3)sc2c1` (centres undefined): the activation is inactive: -2.89%.

Take `COc1cc(NC(=O)CSc2nc3nc(C)c(Cc4ccccc4)c(C)n3n2)cc(OC)c1`: the activation was inactive: -8.38%.

Take `CCN(c1ccc(C)cc1C)S(=O)(=O)c1nnc(NC(=O)CC(C)C)s1`: the activation is inactive: 37.5%.

`Cc1c(CNC(C)c2ccccc2)c(C(=O)O)c(C)n1Cc1c(F)cccc1Cl` (centres undefined): the activation is inactive: 2.92%.

As to `CCOC(=O)C1CCCN(C(=O)c2cc3c(=O)n(C)c4ccccc4c3s2)C1` (centres undefined), the activation was active: 103%.

On to `CCOc1ccc(-c2c(C)nn3c(C)c(C(=O)NCC(C)c4ccccc4)cnc23)cc1OCC` (centres undefined), for which the activation was inactive: -17.5%.

Regarding `C[N+](C)(C)CC(=O)[O-]`, the activation is inactive: 3.43%.

As to `COc1cc(-c2noc(-c3nnn(-c4ccc(Cl)cc4)c3C)n2)cc(OC)c1OC`, the activation is inactive: -12.2%.

Regarding `CCc1ccc(N2C(=O)CS(=O)(=O)C23C(=O)N(Cc2ccccc2)c2ccccc23)cc1` (centres undefined), the activation is inactive: -9.83%.

Consider `Cc1ccc(-n2nc(CO)c(C(=O)NCCc3ccccc3)n2)cc1C`, for which the activation was inactive: -10.9%.

For `O=C(Nc1ccccc1C(F)(F)F)c1noc2c1CCCCC2`, the activation is inactive: 13.5%.

On to `CCCc1nn(C)c2c(=O)[nH]c(-c3cc(S(=O)(=O)N4CCN(C)CC4)ccc3OCC)nc12`, for which the activation was inactive: -11.2%.

As for `CCc1cccc(C)c1Nc1c(-c2ccc(N3CCOCC3)cc2)nc2ncccn12`, the activation was inactive: -13.6%.

As to `CC(=O)c1ccc(NC(=O)C2CCCN(S(=O)(=O)c3cn(C)cn3)C2)cc1` (centres undefined), the activation was inactive: -14%.
